# From paper PMC4336329 (PLoS ONE, 2015)
# The whole screen tested about 310,000 compounds, of which about 14,000 (4.5%) showed an effect of 50% or more. The effect is printed as a negative number. Some of the results follow.
# Target: human ether-à-go-go-related gene (hERG) potassium channel (human, UniProt Q12809)
# Assay: primary screen, population patch clamp on CHO cells stably expressing hERG
# 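Also: peak tail current of the secondary pulse compared with the same well before compound.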
# human ether-à-go-go-related gene (hERG) potassium channel, sequence (Q12809 whole entry, looked up): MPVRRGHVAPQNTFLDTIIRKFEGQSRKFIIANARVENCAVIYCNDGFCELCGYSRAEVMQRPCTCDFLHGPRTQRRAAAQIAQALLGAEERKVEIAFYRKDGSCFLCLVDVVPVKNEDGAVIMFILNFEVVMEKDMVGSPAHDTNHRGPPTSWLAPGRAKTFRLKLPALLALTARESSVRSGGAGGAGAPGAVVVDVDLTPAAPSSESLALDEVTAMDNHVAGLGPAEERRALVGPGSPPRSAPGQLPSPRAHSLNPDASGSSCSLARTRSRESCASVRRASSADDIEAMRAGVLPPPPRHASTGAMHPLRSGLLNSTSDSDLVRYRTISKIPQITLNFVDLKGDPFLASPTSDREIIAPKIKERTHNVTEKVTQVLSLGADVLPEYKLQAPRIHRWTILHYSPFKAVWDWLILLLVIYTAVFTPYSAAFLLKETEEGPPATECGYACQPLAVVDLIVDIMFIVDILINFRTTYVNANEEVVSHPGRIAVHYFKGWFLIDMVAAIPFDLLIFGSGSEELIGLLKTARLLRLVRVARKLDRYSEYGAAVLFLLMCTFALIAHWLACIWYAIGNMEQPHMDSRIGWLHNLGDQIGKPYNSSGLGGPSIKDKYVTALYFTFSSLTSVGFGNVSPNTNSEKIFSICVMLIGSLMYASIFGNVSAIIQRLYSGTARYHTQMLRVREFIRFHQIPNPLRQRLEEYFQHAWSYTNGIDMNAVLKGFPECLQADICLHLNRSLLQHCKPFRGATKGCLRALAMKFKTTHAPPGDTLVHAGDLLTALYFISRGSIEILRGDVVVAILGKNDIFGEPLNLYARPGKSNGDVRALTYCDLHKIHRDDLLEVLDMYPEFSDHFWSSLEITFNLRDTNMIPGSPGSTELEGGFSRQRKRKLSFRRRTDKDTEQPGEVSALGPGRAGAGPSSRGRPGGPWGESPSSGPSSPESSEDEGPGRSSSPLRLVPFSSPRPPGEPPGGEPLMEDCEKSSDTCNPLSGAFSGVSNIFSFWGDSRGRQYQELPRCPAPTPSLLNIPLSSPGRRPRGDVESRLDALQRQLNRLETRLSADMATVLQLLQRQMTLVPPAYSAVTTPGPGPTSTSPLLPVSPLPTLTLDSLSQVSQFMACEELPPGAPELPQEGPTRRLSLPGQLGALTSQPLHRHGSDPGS
row,SMILES,"hERG current change (%, negative = inhibition) at 10uM [%]"
1,O=CN1CCC(=O)N(Cc2ccccc2)c2ccccc21,-4.26
2,CN1CCN(c2ccc([N+](=O)[O-])c(SCCO)c2)CC1,-0.278
3,O=C(NCc1ccco1)C(=O)c1c[nH]c2ccccc12,-3.84
4,c1ccc2[nH]c(Cn3nnc4ccccc43)nc2c1,-3.46
5,CCC1CCc2sc(C(=O)N(C)CC(=O)Nc3ccc(N4CCOCC4)cc3)cc2C1 (stereo not shown),7.7
6,N#CCCN1CCN(C2=NC(=O)/C(=C\c3cccs3)S2)CC1,-52.4
7,CN1CCN(C(=O)C23CCC(C)(c4nc5ccccc5nc42)C3(C)C)CC1 (stereo not shown),-53.3
8,CCOC(=O)c1c(C)[nH]c(C)c1S(=O)(=O)N(C)CC(=O)Nc1cccc(C)n1,-2.05
9,CC1CN(S(=O)(=O)c2ccc(C(=O)Nc3nnc(-c4ccco4)o3)cc2)CC(C)O1 (stereo not shown),13.2
10,Cc1cc(Cl)cc(Cl)c1CNc1c([N+](=O)[O-])c(=O)oc2ccccc12,8.42
11,Cc1ccc(NC(=O)c2ccc(S(=O)(=O)NCc3cccnc3)cc2)c(C)c1,0.528
12,COc1ccccc1NC(=O)OCC#CCOC(=O)Nc1ccccc1OC,5.92
13,Nc1cc(OC(=O)c2c(F)cccc2Cl)nn1S(=O)(=O)c1ccccc1,-3.02
14,CC1CC(OC(=O)c2ccccc2)CC(C)N1C.Cl (stereo not shown),-5.09
15,CC(C)COc1ccc(C(=O)N/C(=C\c2cccc([N+](=O)[O-])c2)C(=O)O)cc1,7.25
16,O=C1CCC(=O)N1c1ccccc1OS(=O)(=O)c1ccccc1,24.7
17,CN(C)c1ccc(C=C(C#N)C#N)cc1,-2.8
18,COCc1nnc(NC(=O)c2ccc(S(=O)(=O)N(C)c3ccccc3)cc2)o1,14.6
19,O=C1c2sc3nc4n(c(=O)c3c2CCC1Br)CCCCC4 (stereo not shown),-3.25
20,Cc1ccc(OCC(=O)Nc2sc3c(c2C#N)CCC3)cc1C,3.62
21,COC(=O)c1ccc(NC(=O)Cn2c([N+](=O)[O-])cnc2C)cc1,1.23
22,COc1cc(OC)nc(N/N=C(\c2ccccc2)c2ccncc2)n1,-18.1

row,SMILES,"hERG current change (%, negative = inhibition) at 10uM [%]"
1,CCc1ccc(N(C(=O)c2ccco2)C(C(=O)NC2CCCC2)c2ccncc2)cc1 (stereo not shown),-36.2
2,O=C(NCC(=O)N(CCc1ccccc1)C(C(=O)NC1CCCCC1)c1ccncc1)c1ccco1 (stereo not shown),-54.6
3,C/C(=N\NC(=O)C(=O)Nc1cc(C)ccc1C)c1ccncc1,5.66
4,CCOC(=O)Cn1nc(-c2ccc(F)cc2)oc1=O,-6.03
5,CC(C)[C@H]1COCCS(=O)(=O)N1Cc1ccccc1F,11.3
6,CCOC(=O)c1c(C)nc2c(c1-c1ccc(OC)cc1)C(=O)CC(C)(C)C2,-18.5
7,CSc1nc2ccccc2n1CC(=O)Nc1c(C)n(C)n(-c2ccccc2)c1=O,9.75
8,CCOc1ccc(N2C(=O)c3cccnc3C2=O)cc1,13.1
9,COC(=O)[C@]1(CC(C)C)N[C@H](c2ccc(SC3CCCCC3)c(OC)c2)[C@@H]2C(=O)N(C)C(=O)[C@@H]21.O=C(O)C(F)(F)F,-27.5
10,O=C(OCC#CCSc1nnc(-c2ccccc2)o1)c1ccco1,-29.2
11,c1ccc(C2CCC3(CC2)Oc2ccccc2C2CC(c4cccnc4)=NN23)cc1 (stereo not shown),2.99
12,Cc1ccc2nc(-c3ccc(N4C(=NC(=O)CCC(=O)O)SC5CS(=O)(=O)CC54)cc3)sc2c1 (stereo not shown),-19.3
13,COc1cc2c(cc1NC(=O)C(C)NCc1ccccc1)oc1ccccc12 (stereo not shown),2.62
14,CN1CC(C(=O)c2ccccc2)C(C(=O)c2ccccc2)C1 (stereo not shown),-21.4
15,COC(=O)c1cc(NC(=O)c2cccc([N+](=O)[O-])c2C)ccc1Cl,-5.8
16,NC(=S)Nc1cccc(Cl)c1,19.1
17,Cc1nc(SCc2ccccc2)nc2c1CCC2,4.66
18,O=C(NC1CCCCCCC1)c1ccccc1-c1ccccc1,-7.73
19,C[C@@H]1CN=C2N(CCNC(=O)CCC3CCCCC3)[C@H](Cc3ccc(O)cc3)CN21,-0.311
20,O=[n+]1cc(-c2ccc(Cl)cc2)n([O-])c2c1CCC2,21.4
21,O=C(N/N=C/c1cccnc1)c1cc(C2CC2)nc2ccccc12,11.1
